These results are taken from a collection of fitness landscapes (doi:10.1126/science.1257360).

The chains are these.
B1: PhoQ; a variant is named by its letters at X, in order, P23837 (parent)
chain: MKKLLRLFFPLSLRVRFLLATAAVVLVLSLAYGMVALIGYSVSFDKTTFRLLRGESNLFYTLAKWENNKLHVELPENIDKQSPTMTLIYDENGQLLWAQRDVPWLMKMIQPDWLKSNGFHEIEADVNDTSLLLSGDHSIQQQLQEVREDDDDAEMTHSVAVNVYPATSRMPKLTIVVVDTIPVELKSSYMVWSWFIYVLSANLLLVIPLLWVAAWWSLRPIEALAKEVRELEEHNRELLNPATTRELTSLVRNLNRLLKSERERYDKYRTTLTDLTHSLKTPLXXLQXXLRSLRSEKMSVSDAEPVMLEQISRISQQIGYYLHRASMRGGTLLSRELHPVAPLLDNLTSALNKVYQRKGVNISLDISPEISFVGEQNDFVEVMGNVLDNACKYCLEFVEISARQTDEHLYIVVEDDGPGIPLSKREVIFDRGQRVDTLRPGQGVGLAVAREITEQYEGKIVAGESMLGGARMEVIFGRQHSAPKDE

This is one part of the list. A value given as a limit tells only on which side of the number the result lay.

Variants of B1 are the subject of the test. Nature of the test: enrichment ratio after two sorts for PhoP signalling (ratio (wild type AVST 3.29)); higher = more functional. As to conditions: with PhoP (E. coli).
For the variant AWRM, the enrichment ratio is at most 0.25.
In the case of PNEE it was at most 0.25; in that of FWHN, at most 0.25.
In the case of EHPW it was at most 0.25; in that of GKIG, at most 0.25.
Turning to QTYS, the enrichment ratio was 2.9.
Turning to KKIF, the enrichment ratio was at most 0.25.
Turning to RVLG, the enrichment ratio was at most 0.25.
Consider HGWP, for which the enrichment ratio is at most 0.25.
In the case of IGVT it was at most 0.25; in that of MMTN, at most 0.25.
In the case of MDRP it was at most 0.25; in that of TYKC, at most 0.25; in that of YRHV, at most 0.25.
In the case of TIEN, the enrichment ratio is at most 0.25.
In the case of WWFG it was at most 0.25; in that of QGHS, at most 0.25.
In the case of CSLD it was at most 0.25; in that of FWSY, at most 0.25.
In the case of YYFH it was at most 0.25.
RNCC: the enrichment ratio was at most 0.25.
In the case of SRLW it was at most 0.25.
In the case of QTLD it was at most 0.25.
With PYCA, the enrichment ratio was at most 0.25.
Turning to PNVD, the enrichment ratio is at most 0.25.
In the case of SPPQ it was at most 0.25; in that of KVGP, at most 0.25; in that of DVNW, at most 0.25.
In the case of VHRC it was at most 0.25.
In the case of LITA it was at most 0.25; in that of HIQF, at most 0.25.
In the case of ETVE, the enrichment ratio is at most 0.25.
In the case of VYGC it was at most 0.25.
In the case of NMNW it was at most 0.25; in that of FVWS, at most 0.25; in that of HPFQ, at most 0.25.
In the case of FQCT it was at most 0.25.
As for ANPI, the enrichment ratio is at most 0.25.
In the case of FDGD it was at most 0.25.
In the case of SRQD it was at most 0.25; in that of GHMA, at most 0.25.
On to IPNR, for which the enrichment ratio was at most 0.25.
In the case of PVKC it was at most 0.25; in that of LVCP, at most 0.25; in that of QRNS, at most 0.25.
In the case of HWWR it was at most 0.25.
In the case of WVYT it was at most 0.25; in that of HDDG, at most 0.25; in that of IYNQ, at most 0.25.
In the case of RSCK, the enrichment ratio was at most 0.25.
Consider ICNT, for which the enrichment ratio was at most 0.25.
In the case of IFLP it was at most 0.25; in that of VERR, at most 0.25.
In the case of QVIG it was at most 0.25; in that of IWWW, at most 0.25.
In the case of VTER it was at most 0.25; in that of FSCG, at most 0.25; in that of TYLA, 6.31.
On to NMCS, for which the enrichment ratio was at most 0.25.
In the case of IQHV it was at most 0.25.
For NQQY, the enrichment ratio was at most 0.25.
In the case of QRFM it was at most 0.25.
On to SARW, for which the enrichment ratio is at most 0.25.
In the case of VNCD it was at most 0.25; in that of AVMF, 5.91.
In the case of PNMN it was at most 0.25; in that of FIVD, at most 0.25.
Turning to IQKH, the enrichment ratio was at most 0.25.
In the case of PQCV it was at most 0.25.
For the variant NAHW, the enrichment ratio was at most 0.25.
On to HQVN, for which the enrichment ratio is at most 0.25.
In the case of YKFR it was at most 0.25; in that of RSYL, at most 0.25.
In the case of PMQY it was at most 0.25.
In the case of KFHW it was at most 0.25; in that of WPDE, at most 0.25.
Turning to PWNN, the enrichment ratio was at most 0.25.
In the case of DAMI it was at most 0.25.
In the case of QRCC it was at most 0.25.
In the case of DTMS it was at most 0.25.
For the variant KSYH, the enrichment ratio was at most 0.25.
In the case of QWAH it was 2.21; in that of NEMC, at most 0.25.
In the case of KGTQ it was at most 0.25.
